About 6,400 (1.6%) of roughly 410,000 compounds were called active. Inconclusive results, whose numbers are uncertain, are shown with a selection of clear calls. The call rests on the fitted dose curve; in most records, active means well fitted inhibition curve with a large enough effect; inconclusive means small, poorly fitted or top-dose-only effect; inactive means no such curve, though single readings can be large or run the other way. Potencies of inconclusive entries are doubtful fits and often do not repeat.
These compounds were tested against Glucagon-like peptide 1 receptor (Homo sapiens) (UniProt P43220) (assay: qHTS of GLP-1 Receptor Inverse Agonists (Inhibition Mode)). Conditions: HEK293 GLP-1R CRE-luciferase, luminescence, 24 h, GLP-1R form is constitutively active; series mostly up to 38.3 µM.
How it was run: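 GLP-1R inverse agonism mode: basal reporter luminescence in engineered HEK293 cells measured after one day of compound exposure at 37 deg C, with a 12 min room-temperature detection step.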
Further: nearly all actives have a fitted effect of over 55% in size.
Potency means the concentration at half of the fitted maximal effect; tags describe the fitted curve by direction and shape.

Chain of UniProt P43220 (P43220 whole entry, looked up): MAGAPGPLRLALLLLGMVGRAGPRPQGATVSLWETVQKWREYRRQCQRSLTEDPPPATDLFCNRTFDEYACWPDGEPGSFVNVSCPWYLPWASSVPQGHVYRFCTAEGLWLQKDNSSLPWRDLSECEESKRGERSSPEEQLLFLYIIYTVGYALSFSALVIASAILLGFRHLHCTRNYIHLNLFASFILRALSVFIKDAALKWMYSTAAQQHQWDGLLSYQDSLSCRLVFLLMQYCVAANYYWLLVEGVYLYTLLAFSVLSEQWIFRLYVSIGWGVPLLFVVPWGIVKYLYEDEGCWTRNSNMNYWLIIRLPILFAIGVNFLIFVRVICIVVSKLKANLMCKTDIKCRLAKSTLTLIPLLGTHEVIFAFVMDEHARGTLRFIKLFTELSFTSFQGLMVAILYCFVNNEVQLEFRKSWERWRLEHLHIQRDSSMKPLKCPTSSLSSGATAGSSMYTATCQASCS

Potency, inconclusive:
Cc1ccccc1OCC(=O)NNC(=O)Nc1ccc(Cl)cc1 3.55 µM [inhibitor, full curve, poor fit]
CCCNC(=O)CCc1c(C)nc2nc(C)nn2c1C 0.355 µM [inhibitor, full curve, poor fit]
O=C1C=C(c2cccc(O)c2)C[C@@H](c2ccc(F)cc2)C1 28.2 µM [inhibitor, single point]
O=C(Nc1ccccc1Cl)c1ccc(-c2ccccn2)s1 8.91 µM [inhibitor, partial curve, poor fit]
CN(C1=C(NC(=O)c2ccccc2)C(=O)c2ccccc2C1=O)C1CCS(=O)(=O)C1 (stereo unspecified) 28.2 µM [inhibitor, single point]
CN1/C(=C/C(=O)C2CC2)C(C)(C)c2ccccc21 22.4 µM [inhibitor, single point]
CCc1ccccc1N(CC(=O)N1CCCCC1)S(=O)(=O)c1ccccc1 22.4 µM [inhibitor, single point]
CCOC(=O)c1c(CN(C)C)n(-c2ccc(C)cc2)c2cc(Br)c(O)cc12 6.31 µM [inhibitor, partial curve, poor fit]
S=C(NCc1cccs1)Nc1ccc(Cl)cc1 28.2 µM [inhibitor, single point]
C=CCC(NCc1ccccc1)c1ccc(OC)cc1 (stereo unspecified) 28.2 µM [inhibitor, single point]
O=C(CSc1nc2c([nH]c3ccccc32)c(=O)n1-c1ccccc1F)Nc1cccc(Cl)c1 10 µM [inhibitor, partial curve, poor fit]
COc1ccc(CC2(C)OC(c3ccc(C)c([N+](=O)[O-])c3)=NN2C(C)=O)cc1 (stereo unspecified) 28.2 µM [inhibitor, single point]
CC(C)c1ccc(NC2CCCN(C(=O)c3cnn(C(C)C)c3)C2)cc1 (stereo unspecified) 8.91 µM [inhibitor, partial curve, poor fit]
COc1ccccc1OCCCN1CCC(C(O)(c2ccccc2)c2ccccc2)CC1 10 µM [inhibitor, partial curve, poor fit]
Cc1ccc(-c2csc3nc(CSc4nnc(-c5ccc(Cl)cc5)n4C)[nH]c(=O)c23)cc1 1.58 µM [inhibitor, partial curve, poor fit]
Cc1ccc(S(=O)(=O)N2[C@@H](c3ccccc3F)C(C(=O)O)=CC[C@H]2c2ccc(C(C)C)cc2)cc1 11.2 µM [inhibitor, single point]
Cc1cc(C)c(-c2c(N)cc(Br)cc2Br)c(N)c1 15.8 µM [inhibitor, partial curve, poor fit]
CC(O)CN=c1cc(-c2ccccc2)oc2ccc(Cl)cc12 (stereo unspecified) 12.6 µM [inhibitor, single point]
CC1CCN(C(=O)Cn2cc(SCC(=O)NCc3ccccc3)c3ccccc32)CC1 28.2 µM [inhibitor, single point]
COc1cccc(NC(=O)CNS(=O)(=O)c2ccc(Cl)cc2)c1 11.2 µM [inhibitor, partial curve, poor fit]
N=c1ccn(Cc2cccc(Cl)c2)cc1 5.01 µM [inhibitor, partial curve, poor fit]
COC(=O)[C@]12CCCCC=C1N(CCc1ccc(OC)c(OC)c1)C(=O)[C@H](CC(=O)NCCCCc1ccccc1)C2 22.4 µM [inhibitor, single point]
CSc1nc2ccc(NC(=O)c3ccc(F)c(F)c3)cc2s1 11.2 µM [inhibitor, single point]
CCOc1ccc(S(=O)(=O)NCCC(=O)N2CCCN(C)CC2)cc1 7.08 µM [inhibitor, partial curve, poor fit]
COc1ccc(-n2ncc(C(=O)NCc3cccs3)c2C2CCN(C(=O)OC(C)(C)C)CC2)cc1 10 µM [inhibitor, partial curve]
CNCC(C)COc1ccccc1OCc1ccccc1 (stereo unspecified) 12.6 µM [inhibitor, single point]
Cc1cc(C)cc(NC(=O)c2oc3ccccc3c2COc2ccccc2)c1 11.2 µM [inhibitor, single point]
CCc1ccccc1N(CC)C(=O)c1cc2c(s1)-c1ccccc1SC2 11.2 µM [inhibitor, partial curve, poor fit]
CCCCC(=O)NC(=S)Nc1c(C)cc(Br)cc1C 10 µM [inhibitor, partial curve, poor fit]
CC(=O)Nc1ccc(C(=O)OCc2ccc(F)cc2Cl)cc1 14.1 µM [inhibitor, single point]
CCOc1ccc2c(ccc(/C=C/c3cc(C)c4cccnc4c3O)[n+]2C)c1 10 µM [inhibitor, partial curve, poor fit]
c1ccc(Nc2ccc3c4c(cccc24)CC3)cc1 28.2 µM [inhibitor, single point]
COc1ccc(S(=O)(=O)Nc2ccc3c(c2)C(=O)N([C@@H](C)CO)C[C@@H](C)[C@H](CN(C)S(=O)(=O)c2ccc(F)cc2)OCCCC[C@H](C)O3)cc1 8.91 µM [inhibitor, partial curve, poor fit]

Potency, active:
CC(C)CCNC(=O)c1onc(CSc2ccccc2)c1C(=O)NCCC(C)C 3.98 µM

Potency, inactive:
O=C(COC(=O)c1cc([N+](=O)[O-])ccc1N1CCOCC1)NCc1ccccc1
NCc1csc(Nc2ncccn2)n1
CCC(Sc1nnc(-c2ccc(F)cc2)c(-c2ccc(F)cc2)n1)C(=O)NC1CCCC1 (stereo unspecified)
N#CC1=C(S)N(c2ccccc2)C(c2ccc(-c3cccc(Cl)c3)o2)NC1=O (stereo unspecified)
CCOc1ccc2[nH]c(=O)c(CN(CCO)C(=O)c3ccccc3F)cc2c1
COc1ccc(-c2cn3c(n2)sc2cc(C(=O)NCCc4ccccc4)ccc23)cc1
O=C(Nc1ccccc1)Nc1ccccc1-n1ccnc1

— PubChem BioAssay AID624417 (National Center for Advancing Translational Sciences (NCATS), 2012)
